Source: PubChem BioAssay AID588855 (National Center for Advancing Translational Sciences (NCATS), 2011)
Where “and” joins values, the source holds several entries; their conditions need not be identical. Equal entries are not always repeated. The campaign covered roughly 410,000 compounds. About 5,000 (1.2%) were called active. The shares of active, inactive and inconclusive entries below differ from those in the screen. Calls follow the shape of the dose curve; as a rule, active = well fitted inhibition curve with a large enough effect; inconclusive = small, poorly fitted or top-dose-only effect; inactive = no such curve, though single readings can be large or run the other way. Potencies of inconclusive entries are doubtful fits and often do not repeat.

assay: qHTS for Inhibitors of TGF-b; details: HepG2 CAGA-GFP TGF-b/SMAD3 reporter, GFP fluorescence, 18 h, TGF-beta stimulated, 500 pg/mL final; series mostly up to 46.1 µM; activity, negative = inhibition: at the top concentration; also: nearly all actives have a fitted effect of over 65% in size
How it was run: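 HEPG2 CAGA-GFP cells (1000/well, DMEM with 1% FBS) were pre-incubated 2 h at 37 degrees C, given compound by pin tool, then stimulated with TGF-beta at 500 pg/mL final for 18 h before per-cell GFP fluorescence imaging.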
% is scaled to controls: 0 for no effect and ±100 for the full control effect; potency is read from the fitted curve at half-maximal effect; tags tell the direction and shape of the fitted curve.

| SMILES | activity, negative = inhibition | Potency |
| --- | --- | --- |
| COc1cc(/C=C/c2ccnc3ccccc23)cc(OC)c1OC | inactive: -4.31% | – |
| COc1ccc(NC(=O)c2sccc2SCc2cccc(C(F)(F)F)c2)cc1 | – | inconclusive: 11.2 µM [inhibitor, partial curve, poor fit] |
| N#Cc1ccc(CSc2ccc(S(=O)(=O)N3CCCC3)cn2)cc1 | – | inconclusive: 14.1 µM [inhibitor, partial curve, poor fit] |
| O=C(OC(c1ccc(NS(=O)(=O)c2ccccc2)cc1)(C(F)(F)F)C(F)(F)F)c1ccccc1 | – | inconclusive: 35.5 µM [inhibitor, single point] |
| CC1=CC(C)(C)N(S(=O)(=O)c2ccc(C)cc2)c2ccc(C)cc21 | – | inconclusive: 8.91 µM [inhibitor, partial curve] |
| Cc1cccc(NC(=O)CSc2nc(C)c(Cc3ccccc3)c(=O)[nH]2)c1 | – | inconclusive: 17.8 µM [inhibitor, single point] and inconclusive: 35.5 µM [inhibitor, single point] |
| CCOc1ccc(C(=O)N/N=C(/C)C2C(=O)c3ccccc3C2=O)cc1 | inactive: 2.61% | – |
| O=C(NCCCc1ccccc1)C(=O)c1c[nH]c2ccccc12 | – | inconclusive: 15.8 µM [inhibitor, partial curve, poor fit] |
| COc1ccc(OCC(=O)Nc2ccc(N3CCN(Cc4ccccc4F)CC3)cc2)cc1 | inactive: -0.0345% | – |
| CC(=O)c1cc(-c2ccccc2)n(CCC(=O)Nc2cc(C)cc(C)c2)c1C | – | inconclusive: 3.98 µM [inhibitor, single point] |
| CC(=O)N(C)C1=C(N2CCOCC2)C(=O)c2ccccc2C1=O | – | active: 1.58 µM |
| CCCCNC(=O)COC(=O)c1c2c(nc3ccccc13)/C(=C/c1cccs1)CC2 | – | inconclusive: 14.1 µM [inhibitor, single point] |
| CCOC(=O)c1c(C)c(C(=O)N2CCCCCC2)c(C)n1C | inactive: -0.356% | – |
| CC(=O)Nc1ccc(S(=O)(=O)Nc2nc3ccccc3nc2Nc2cccc(S(N)(=O)=O)c2)cc1 | inactive: -1.44% | – |
| COc1ccccc1CCNC(=O)c1cccn1-c1nnc(N2CCCCC2)s1 | – | inconclusive: 15.8 µM [inhibitor, single point] |
| CC(C)CN1CC(Br)C(=O)NC1=O (centres undefined) | inactive: 4.36% | – |
| O=[N+]([O-])C1C(c2ccccc2)C12c1ccccc1-c1ccccc12 (centres undefined) | – | inconclusive: 17.8 µM [inhibitor, partial curve, poor fit] |
| CSc1ccccc1NC(=O)CN(C)Cc1c(O)ccc2ccccc12 | – | inconclusive: 0.224 µM [inhibitor, full curve, poor fit] |
| COc1cccc(-c2nc(C(N)=O)c3c(n2)n(-c2ccc4c(c2)OCO4)c(=O)n3C)c1OC | inactive: 9.6% | – |
| Cn1c(C(=O)NCc2cccc(F)c2)cc2cc(S(=O)(=O)N3CCCCC3)ccc21 | – | inconclusive: 7.08 µM [inhibitor, full curve, poor fit] |
| COc1ccc(Cl)cc1NC(=S)N(CCCN1CCOCC1)Cc1cn(C)c2ccccc12 | – | inconclusive: 14.1 µM [inhibitor, partial curve] |
| COc1ccc(-c2onc(C)c2C)cc1S(=O)(=O)N1CCC(C)CC1 | inactive: 0% | – |
| Cc1ccc(NC2CCCN(C(=O)C3CCCCC3)C2)cc1C (centres undefined) | inactive: -21.9% | – |

| SMILES | activity, negative = inhibition | Potency |
| --- | --- | --- |
| COc1cc(-c2c(-c3ccc4c(c3)OCO4)noc2C)ccc1F | – | inactive |
| CC(=O)c1ccc(NC(=O)COC(=O)CCc2ccc(S(=O)(=O)N3CCOCC3)cc2)cc1 | – | inconclusive: 5.01 µM [inhibitor, full curve, poor fit] |
| O=C(CN1N=C(c2ccc(Cl)cc2)CCC1=O)NCc1ccc(F)cc1 | – | inconclusive: 35.5 µM [inhibitor, single point] |
| COc1ccc(NC(=O)CSc2ccc3c(c2)OCCO3)cc1 | inactive: 0% | – |
| COCCCNC(=O)CCc1nnc(Cc2ccc(-c3ccccc3)cc2)o1 | – | inconclusive: 3.55 µM [inhibitor, single point] |
| COc1ccc(OCC(=O)N(C)CC2COc3ccccc3O2)cc1 (centres undefined) | inactive: -18.4% | – |
| CC1=C(C)/C(=N\OS(=O)(=O)c2ccc(C)cc2)C=CC1=O | – | active: 2.82 µM |
| COc1ccccc1NC(=O)Cc1csc(NC(=S)Nc2ccc(C)cc2)n1 | – | inconclusive: 35.5 µM [inhibitor, single point] |
| CC1(C)Cc2c(cnn2-c2ccc(F)cc2)C(NC(=O)C2=CC(=O)CC(C)(C)O2)C1 (centres undefined) | inactive: -2.93% | – |
| CC1(C)C(C=C(Cl)Cl)C1C(=O)N(Cc1ccc(Cl)cc1)C1CCS(=O)(=O)C1 (centres undefined) | – | inconclusive: 35.5 µM [inhibitor, single point] |
| COc1cc(C2Nc3ccccc3C(=O)N2Cc2ccccc2)ccc1OCc1ccccc1 (centres undefined) | – | inconclusive: 2.82 µM [inhibitor, full curve, poor fit] |
| Nc1nnc(Cc2c[nH]c3ccccc23)s1 | – | inconclusive: 2.82 µM [inhibitor, single point] |
| C/C=C1\COC(C(=O)NCc2ccncc2)(C(F)(F)F)C=C1C=C1CCCCC1 (centres undefined) | – | active: 10 µM |
| CSc1nn(Cc2cccc(F)c2)c(N(C(C)=O)C(C)=O)c1S(=O)(=O)c1ccccc1 | – | inconclusive: 35.5 µM [inhibitor, single point] |
| CCCCN(CC)C(=O)c1cc2c(=O)[nH]c3ccc(C)cc3c2s1 | inactive: -9.4% | – |
| Cc1cc(N2CCN(c3ccccn3)CC2)n2cc(-c3ccccc3)nc2n1 | inactive: -5.82% | – |
| COc1ccc(Nc2nnc(-c3ccc(C)c(S(N)(=O)=O)c3)c3ccccc23)cc1 | – | inconclusive: 20 µM [inhibitor, partial curve, poor fit] |
| CC(=O)c1cccc(NC(=O)C2=CC(c3ccco3)=NS(=O)(=O)N2C)c1 | – | inconclusive: 7.94 µM [inhibitor, single point] |
| COc1ccc(CCNc2oc(COc3ccc(Cl)cc3)nc2C#N)cc1OC | – | inconclusive: 35.5 µM [inhibitor, single point] |
| COC(=O)c1ccc(OCC(O)CN(CCO)CC(O)Cn2ccc3ccccc32)cc1 (centres undefined) | – | inconclusive: 14.1 µM [inhibitor, single point] |
| Nc1ccc(C=O)cc1 | – | inconclusive: 28.2 µM [inhibitor, single point] |
| CCc1ccc(-c2nc(SCC(=O)NCCOC)c(-c3ccc(C)cc3)[nH]2)cc1 | inactive: -30.5% | – |
| CCc1ccc(CN2CCc3nc(Nc4ccc5c(c4)OCCO5)ncc3C2)cc1 | – | inconclusive: 12.6 µM [inhibitor, single point] |

| SMILES | activity, negative = inhibition | Potency |
| --- | --- | --- |
| CC(C)(C)C1=CC(=O)C(=O)C(C(C)(C)C)=C1 | – | active: 15.8 µM |
| CC1(C)CC(=O)C(CC2C(=O)CC(C)(C)CC2=O)C(=O)C1 | inactive: 17.2% | – |
| CC[C@@H]1C(c2ccccc2)=NN(c2ccccc2)[C@H]1C(=O)N1CCOC1=O | – | inconclusive: 14.1 µM [inhibitor, partial curve] |
| CSc1ccc(S(=O)(=O)N2CCC(C(=O)N3CCc4ccccc4C3)CC2)cc1 | – | inconclusive: 35.5 µM [inhibitor, single point] |
| CCOC(=O)C1CCN(S(=O)(=O)c2cccc(C(=O)Nc3ccccc3)c2)CC1 | – | inconclusive: 10 µM [inhibitor, partial curve, poor fit] |
| O=C(Nc1cccc(C(F)(F)F)c1)c1cc2ncc(Br)cn2n1 | – | inconclusive: 11.2 µM [inhibitor, partial curve] |
| O=C(O)c1cccc(S(=O)(=O)NCC2COc3ccccc3O2)c1 (centres undefined) | inactive: 25.2% | – |
| CCOc1cc(/C=C(/C#N)c2nc3ccccc3[nH]2)ccc1OCc1ccc(C(=O)O)o1 | inactive: 12% | – |
| COc1c(C)cc(Br)cc1C(=O)Nc1ccc(Cc2ccncc2)cc1 | – | inconclusive: 11.2 µM [inhibitor, partial curve] |
| O=C(CCNC(=O)C1CCN(S(=O)(=O)c2ccccc2)CC1)NCc1ccc(Cl)cc1Cl | – | inconclusive: 35.5 µM [inhibitor, single point] |
| COc1cccc(C2C(C(=O)Nc3cccnc3)=C(C)Nc3nc(SCc4ccccc4)nn32)c1 (centres undefined) | inactive: 0.44% | – |
| Cc1ccc(C(=O)Nc2nc(-c3ccccn3)cs2)o1 | – | inconclusive: 15.8 µM [inhibitor, single point] |
| O=C(COc1ccccc1-c1ccccc1)NCc1cccc(Cl)c1 | – | inconclusive: 35.5 µM [inhibitor, single point] |
| O=C(c1ccccc1)c1ccc2nc(Nc3ccccc3)c3nncn3c2c1 | inactive: 5.51% | – |
| COc1ccc(-n2nc3c(N4CCC(C(=O)NCc5cccc(C)c5)CC4)nnc(C)c3c2C)cc1 | – | inconclusive: 6.31 µM [inhibitor, single point] |
| O=C(COC(=O)CSc1ccc(Cl)cc1)Nc1ccc2[nH]c(=O)[nH]c2c1 | inactive: -18.7% | – |
| Cc1noc(C)c1C(=O)N1CCN(c2ccc(OCc3ccccc3)cc2)CC1 | inactive: -7.3% | – |
| COC(=O)C(C(=O)Nc1cccc(Cl)c1C)C1CCCC1 (centres undefined) | – | inconclusive: 14.1 µM [inhibitor, single point] |
| O=C(CCN1C(=O)c2cccc3cccc(c23)C1=O)N1CCOCC1 | inactive: 5.85% | – |
| CS(=O)(=O)c1ccc2nc(NC(=O)c3ccc(NS(=O)(=O)c4cccc([N+](=O)[O-])c4)cc3)sc2c1 | – | inconclusive: 11.2 µM [inhibitor, partial curve, poor fit] |
| COC(=O)c1sc(-c2ccc(C(C)(C)C)cc2)cc1NC(=O)CCC(=O)O | inactive: -19.9% | – |
| COc1cc(OC)c2c(-c3cccc(-c4ccc(OC)c(OC)c4)c3)cc(=O)oc2c1 | – | inconclusive: 3.98 µM [inhibitor, full curve, poor fit] |
| CCOC(=O)C(C)(C)Sc1ncnc2nc[nH]c12 | – | inconclusive: 20 µM [inhibitor, partial curve, poor fit] |
